The text below walks through data of ChEMBL document CHEMBL4888484, “Replenishing the malaria drug discovery pipeline: Screening and hit evaluation of the MMV Hit Generation Library 1 (HGL1) against asexual blood stage Plasmodium falciparum ,using a nano luciferase reporter read-out” (2022).

Each structure is given as a SMILES string. The campaign covered roughly 150,000 compounds. About 540 (0.36%) showed an effect of 50% or more. The list shows a part of the results.

The test concerns Plasmodium falciparum. Briefly: Primary screen in NF54 nanoGlo assay, in single point, at 2uM, 72h; a lower Z score goes with more inhibition. The test is classed as functional, Erythrocyte. To be noted: timepoint 72 hour.
What is called % Inhibition is the change of the read-out against control, counted positive when it falls. `O=C(CCCc1ccccc1)NOCC(=O)Nc1cc(F)ccc1F`: the “% Inhibition” value is reported as -3% and the Z score was found to be 0.42.
With `CCn1cc(CC(=O)Nc2c(OC)ncnc2N(C)C)cn1`, the “% Inhibition” value was determined as 7% and the Z score is given as -1.44.
Take `O=C(O)C1CC1C(=O)NCCC1Cc2ccccc2C1` (stereo not drawn): the “% Inhibition” value is reported as -15% and the Z score came out at 2.03.
On to `COc1cccc(CN(C)C2CN(c3ccc4nncn4n3)C2)c1`, for which the “% Inhibition” value is -6% and the Z score was 0.65.
For the compound `Cc1c(CO)[nH]c2ccc(-c3cccc([C@H](C)N4CCCC4)c3)cc12`, the “% Inhibition” value is 2% and the Z score is listed as -0.29.
Consider `COCCN1C(=O)CC(CC(=O)N2C[C@@H](C)O[C@@H](C)C2)(c2ccccc2OC)C1=O` (stereo partly drawn), for which the “% Inhibition” value is -14% and the Z score worked out at 2.06.
Turning to `COCC[C@H](C)NC(=O)NCCc1ccc(C)cc1`, the “% Inhibition” value is -8% and the Z score stood at 1.38.
Consider `CCc1nc(C)c(-c2nc3cc(-n4cnnn4)ccc3[nH]2)[nH]1`, for which the “% Inhibition” value is -4% and the Z score stood at 0.5.
The like results for `CC(C)Nc1cccc(F)c1NC(=O)c1cncn1C` were, in that order, -12% and 1.63.
Take `Cc1cnc(N2C[C@H](O)[C@@H](N3CCN(c4ccccn4)CC3)C2)nc1N`: the “% Inhibition” value is reported as -10% and the Z score is 1.59.
For `CCCn1nc(Cc2ccc(OC)c(OC)c2)nc1-c1cccc(=O)[nH]1`, the “% Inhibition” value came to 0% and the Z score came out at 0.03.
For the compound `CC[C@@H]1Oc2cc(S(=O)(=O)N3CCC(C(=O)N4CCCC4)CC3)c(C)cc2NC1=O`, the “% Inhibition” value came out at 6% and the Z score is given as -0.66.
As to `O=C(CN1CCOC[C@@H]1CC1CCOCC1)NC1CCCC1`, the “% Inhibition” value is listed as -9% and the Z score is given as 1.71.
As for `CN(C)C(=O)CN1C(=O)[C@@H]2CC[C@H]1CN(c1ncc(Cl)cc1F)C2`, the “% Inhibition” value was found to be 7% and the Z score is -0.93.
With `O=C1CN(C(=O)Cn2nnc3c(cnn3-c3ccc(F)cc3)c2=O)c2ccccc2N1`, the “% Inhibition” value is recorded as -25% and the Z score worked out at 2.55.
The matching figures for `CCCN(CCOC)C(=O)NCc1ccc(C)c(C)c1`: -3% and 0.35.
Take `Cn1c(NC(=O)C2CN(c3cc(-n4cccn4)ncn3)C2)cc(=O)[nH]c1=O`: the “% Inhibition” value is -6% and the Z score stood at 1.29.
The matching figures for `CCc1nc2ccccc2c(=O)n1Cc1noc([C@H]2CC(=O)N(c3ccccc3)C2)n1`: -8% and 0.93.
In the case of `c1ccc2c([C@@H]3CCCCCN3)cccc2c1`, the “% Inhibition” value was determined as 6% and the Z score is listed as -0.67.
As for `Cc1ncsc1CNC(=O)C1CC(OCc2ccccc2)C1` (stereo not drawn), the “% Inhibition” value was -14% and the Z score was 1.66.
On to `O=C(NCCc1ccccc1)[C@H]1CCS(=O)(=O)C1`, for which the “% Inhibition” value is recorded as -13% and the Z score was determined as 1.84.
Turning to `COc1ccc2cc(C(=O)N(C)CCC(=O)O)sc2c1`, the “% Inhibition” value was -15% and the Z score is 2.42.
For the compound `CS(=O)(=O)N(Cc1cccnc1)C1CN(C(=O)NCCc2ccccc2)C1`, the “% Inhibition” value was -5% and the Z score stood at 1.04.
Regarding `CCC[C@H]1CN(C(=O)c2[nH]c3c(C)cc(C)cc3c2C)C[C@@H]1N`, the “% Inhibition” value was -9% and the Z score stood at 0.86.
In the case of `COCCc1nc(Cn2cnnn2)n(-c2ccc(F)c(F)c2)n1`, the “% Inhibition” value is recorded as -2% and the Z score came to 0.39.
The matching figures for `CCCCC(CC)C1C2C(=O)N(c3cccc(C)c3)C(=O)C2ON1c1ccccc1` (stereo not drawn): -8% and 1.24.
The matching figures for `CC(=O)N1CCN(C(=O)c2cccc(O)c2C)[C@H]2CS(=O)(=O)C[C@H]21`: -8% and 1.28.
Turning to `CC1CN(C(=O)C2CC2c2ccc(Br)cc2)CCN1` (stereo not drawn), the “% Inhibition” value stood at 5% and the Z score is -0.66.
As for `COC(=O)C1CC(O)C(N(C)Cc2cnn(-c3ccccc3)c2)C1` (stereo not drawn), the “% Inhibition” value turned out to be 4% and the Z score is -0.48.
On to `CCCn1cc(C(=O)N2CCC(C(=O)c3ccc(F)c(F)c3)CC2)c(C)n1`, for which the “% Inhibition” value is given as -14% and the Z score was found to be 1.41.
On to `Cc1ccc(-c2ccnc(N3CC[C@H]4[C@H](C3)OCc3cnnn34)n2)c(C)n1`, for which the “% Inhibition” value is listed as -1% and the Z score is on record as 0.11.
`Cc1cc(C(=O)N2CCCS(=O)(=O)C[C@H]2c2ccccc2)no1`: the “% Inhibition” value is reported as -11% and the Z score amounted to 1.24.
The like results for `CCOC(=O)C1CCCN1C(C)CC(F)(F)F` (stereo not drawn) were, in that order, -3% and 0.43.
Turning to `Nc1ncc(Cl)c(-c2cnc(-c3ccc(F)cc3)s2)n1`, the “% Inhibition” value was -8% and the Z score is 1.12.
For `OCCN(Cc1cnc(C2CC2)o1)C1CC2CCC1C2` (stereo not drawn), the “% Inhibition” value was -12% and the Z score is on record as 1.9.
The like results for `N#Cc1cnn(C(=O)CNC(=O)c2ccc(Br)cc2)c1N` were, in that order, -1% and 0.14.
With `O=C(CCc1cc2n(n1)CCN(C(=O)c1cnccn1)C2)NC1CCCC1`, the “% Inhibition” value was -2% and the Z score was 0.38.
Regarding `COCCN1CC2(CCC1=O)CCN(c1cc(C)nc(N)n1)CC2`, the “% Inhibition” value was -1% and the Z score worked out at 0.1.
On to `COCCN1CC2(CCC1=O)CCN(C(=O)c1cc(Cl)cn1C)CC2`, for which the “% Inhibition” value was -2% and the Z score is on record as 0.48.
With `Cc1ccc(O)c(C(=O)N2CCC3(CC2)C[C@H](O)CNC3=O)c1`, the “% Inhibition” value is given as -14% and the Z score is listed as 2.59.
Turning to `COc1ccc(OC)c(CNC(=O)C2CCN(c3ccc(-c4cccc(F)c4)nn3)CC2)c1`, the “% Inhibition” value is given as -5% and the Z score was 0.64.
As to `Cn1cnnc1CN(Cc1cccnc1)Cc1ccco1`, the “% Inhibition” value is on record as -6% and the Z score is listed as 0.82.
The matching figures for `CS(=O)(=O)NCCCNc1c(F)cccc1C(F)(F)F`: -5% and 0.86.
The like results for `Cc1cc(F)ccc1NC(=O)c1cc(-c2ccc[nH]2)n[nH]1` were, in that order, -6% and 0.74.
As for `COCC1(NC(=O)C2CCC(F)(F)C2)COc2ccccc2C1` (stereo not drawn), the “% Inhibition” value was 3% and the Z score is -0.41.
Turning to `Cc1ccc(NC(=O)CN2CCC(CNC(=O)[C@@H]3CCC(=O)N3)CC2)cc1C`, the “% Inhibition” value was -1% and the Z score is 0.18.
As for `Cn1ccnc1CN1C(=O)CO[C@H]2CN(Cc3ccccc3)C[C@H]21`, the “% Inhibition” value was -11% and the Z score is listed as 1.41.
For `Cn1cc(CNC[C@]2(COc3ccc(S(C)(=O)=O)cc3)C[C@@H](O)[C@@H](O)C2)c2ccccc21`, the “% Inhibition” value is on record as -1% and the Z score worked out at 0.16.
For the compound `Cc1c(C(=O)N2CC(C)(C)C2(C)C)cc(Br)cc1S(N)(=O)=O`, the “% Inhibition” value is reported as -5% and the Z score is 0.82.
For `O=C(C1CCN(C2CCN(CCCc3ccccc3)CC2)CC1)N1CCCC[C@@H]1CO`, the “% Inhibition” value is -5% and the Z score is recorded as 0.68.
Consider `Cc1cc(=O)c(C(=O)N(Cc2ccncc2)CC2CCCCC2)c[nH]1`, for which the “% Inhibition” value is -3% and the Z score amounted to 0.3.
As to `Cc1cc(C)cc(OCC(=O)Nc2ccn(C)c(=O)n2)c1`, the “% Inhibition” value was 8% and the Z score is on record as -0.91.
Turning to `Cc1nnc(NC(=O)N[C@@H](C)c2ccncc2)s1`, the “% Inhibition” value is given as -14% and the Z score is listed as 2.71.
On to `COCCN1CCN(Cc2cnc(N(C)C)nc2)[C@H]2CS(=O)(=O)C[C@H]21`, for which the “% Inhibition” value is on record as -4% and the Z score is given as 0.85.
Regarding `CC(C)NC(=O)CN1C(=O)CN(C(=O)NCc2ccc(F)cc2)c2ccccc21`, the “% Inhibition” value stood at 7% and the Z score is -0.97.
`CCn1cc(C(=O)N(C)[C@@H](C)c2ccccc2)c(-c2cnn(C)c2)n1`: the “% Inhibition” value worked out at 5% and the Z score is given as -0.66.
`Cc1ncn(CCNC(=O)c2c[nH]c(=O)c(Cl)c2)c1C`: the “% Inhibition” value is listed as 6% and the Z score is given as -1.04.
`COc1ccc(NC(=O)N(C)C[C@H](O)COCCOC(C)C)cc1OC`: the “% Inhibition” value worked out at 8% and the Z score is -1.46.
Regarding `CC(C)(C)Cc1nc(-c2cccc(C(=O)N3CC(O)(C4CC4)C3)c2)no1`, the “% Inhibition” value is -3% and the Z score stood at 0.63.
`O=C([C@@H]1CCCCN1C(=O)c1cccnc1)N1CCOC2(CCC2)C1`: the “% Inhibition” value is given as -6% and the Z score stood at 0.72.
Take `O=S(=O)(c1ccc(-c2cncs2)cc1)N1CCNCC1`: the “% Inhibition” value is -3% and the Z score is 0.4.
Regarding `C[C@@H](CNC(N)=NC1CC1)c1ccccc1`, the “% Inhibition” value worked out at 4% and the Z score is given as -0.45.
`Cc1cnc(CCNC(=O)c2cn(C)cn2)n1C1CC1`: the “% Inhibition” value was -7% and the Z score came to 1.06.
`COCCNC(=O)NC1C(C)CCCC1C` (stereo not drawn): the “% Inhibition” value is listed as -14% and the Z score is on record as 2.21.
For the compound `COc1c(Cl)cc(C#N)cc1Cl`, the “% Inhibition” value is recorded as -9% and the Z score came out at 1.17.
Take `COc1ccc(CN(C(=O)Cc2ccc(Cl)c(Cl)c2)C2CC2)c(OC)c1`: the “% Inhibition” value was 2% and the Z score is -0.29.
The matching figures for `COC(=O)[C@H](OC(=O)c1cnn2c(C(F)(F)F)cc(-c3ccccc3)nc12)c1ccccc1`: -9% and 1.23.
On to `CCn1c(=O)c(N2CCN(C(=O)Nc3cccc(C)c3C)CC2)nc2ccccc21`, for which the “% Inhibition” value is on record as 29% and the Z score is -4.21.
Turning to `COc1ccc(CCNC(=O)[C@H]2CCCN(c3nc(C)nc4onc(C)c34)C2)cc1OC`, the “% Inhibition” value is reported as -9% and the Z score is 1.14.
The like results for `Cc1ccc2c(c1)NC(C)(C)c1ssc(=S)c1-2` were, in that order, -5% and 0.98.
The matching figures for `CN(C)C(=O)N1CCN(Cc2ccc(F)c(F)c2)[C@@H]2CS(=O)(=O)C[C@@H]21`: -9% and 1.88.
The matching figures for `CN1C(=O)CCC(C(=O)N2Cc3ccccc3C2)C1c1cnn(C)c1` (stereo not drawn): -11% and 1.3.
As to `CC1(C)CC(NC(=O)OC(C)(C)C)(C(=O)O)C1`, the “% Inhibition” value worked out at 1% and the Z score was -0.1.
Take `COc1ccc(C(=O)N2CCN(c3ncccc3-c3nnc(C(C)C)o3)CC2)c(C)c1`: the “% Inhibition” value was -25% and the Z score came to 2.37.
`Cc1nc2snnc2c(=O)n1Cc1ccccc1`: the “% Inhibition” value is given as -1% and the Z score is 0.2.
With `O=C(c1cc(Cl)sc1Cl)N1CC[C@@H](c2cccs2)S(=O)(=O)CC1`, the “% Inhibition” value is -20% and the Z score was 3.49.
Regarding `Cc1nccn1CC1CCN(Cc2cccnc2N)CC1`, the “% Inhibition” value was -5% and the Z score worked out at 0.93.
Take `O=C([C@@H]1CCCCN1S(=O)(=O)c1cccc(F)c1)N1CCCC1`: the “% Inhibition” value is -2% and the Z score was 0.42.
Regarding `CC(=O)N1CCC[C@@](NC2CCCCC2)(c2nnnn2CCC(C)C)C1`, the “% Inhibition” value was -4% and the Z score was found to be 0.46.
The like results for `Cc1noc(COC2CN(C(=O)NCC(F)(F)C(C)(C)C)C2)n1` were, in that order, -18% and 1.96.
With `NC(=O)C1CCN(C(=O)c2coc(NC(=O)c3ccsc3)n2)CC1`, the “% Inhibition” value is given as -2% and the Z score was determined as 0.31.
Regarding `Cc1cc(C)n(CCC(=O)NC[C@H]2CCN(c3ccccc3C)C2)c(=O)n1`, the “% Inhibition” value is given as -9% and the Z score is 1.61.
Turning to `COCCn1c(C)cc(=O)c(C(=O)N2CCN(c3cccc(Cl)c3)CC2)c1CC1CCCC1`, the “% Inhibition” value is recorded as -12% and the Z score was 1.53.
With `Cc1ncccc1C(=O)NC[C@@]12CCCC=C1N(Cc1ccccc1)C(=O)CC2`, the “% Inhibition” value is on record as -2% and the Z score was determined as 0.26.
